# Measurements as given in the supplement of paper PMC8291772.
# ± gives the standard error. Some of the results follow.
# Target: terminal deoxynucleotidyl transferase (calf thymus) (UniProt P06526)
# Experiment: TdT poly-dT extension signal (Cy3 hybridisation fluorescence, uncapped minus capped) (fluorescence a.u.); higher = more efficient initiation of TdT extension
# Settings: initiator chemistry: 2'-O-methyl-RNA, free 3'-OH (5'-tethered via HEG linker)
# Experimental: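 All mono- to pentamer 2'-O-methyl-RNA initiators were made by photolithographic in situ synthesis (3'-NPPOC amidites, reverse direction, free 3'-OH) on glass on a hexaethylene glycol linker. Each was made in uncapped and DMTr-dT-capped versions, about 11 replicates each. Arrays were extended with calf thymus TdT (0.2 U/uL), 100 uM dTTP and 0.25 mM CoCl2 for 120 min at 37 C, hybridised with an rA18-Cy3 probe and scanned at 532 nm. The value is the mean uncapped minus the mean capped signal. IDs are written 3'->5' and are reversed to 5'->3'; all nucleotides are 2'-OMe.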
# Sequence of UniProt P06526 (P06526 whole entry): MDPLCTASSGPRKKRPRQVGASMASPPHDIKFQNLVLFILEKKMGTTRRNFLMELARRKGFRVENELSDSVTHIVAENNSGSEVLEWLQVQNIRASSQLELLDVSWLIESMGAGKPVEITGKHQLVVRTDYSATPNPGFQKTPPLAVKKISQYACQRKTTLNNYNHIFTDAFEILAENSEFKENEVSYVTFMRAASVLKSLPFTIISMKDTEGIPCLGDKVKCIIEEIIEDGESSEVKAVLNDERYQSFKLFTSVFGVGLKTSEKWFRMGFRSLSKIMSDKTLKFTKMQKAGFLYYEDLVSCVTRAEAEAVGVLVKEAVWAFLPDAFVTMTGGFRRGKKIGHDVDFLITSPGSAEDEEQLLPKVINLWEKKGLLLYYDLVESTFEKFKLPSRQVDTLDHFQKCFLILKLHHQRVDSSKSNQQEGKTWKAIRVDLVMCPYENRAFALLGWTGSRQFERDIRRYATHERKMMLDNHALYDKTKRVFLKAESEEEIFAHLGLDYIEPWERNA
row,Sequence,TdT poly-dT extension signal
1,GUCAU,506 ± 29
2,GGAGA,880 ± 73
3,CGCGG,356 ± 32
4,AUCCA,392 ± 31
5,GCGAA,1000 ± 120
6,AUUC,339 ± 23
7,CACAC,836 ± 66
8,CAUGA,506 ± 40
9,GCGGA,554 ± 28
10,ACUGG,210 ± 26
11,AGGUG,221 ± 21
12,CCGCC,552 ± 28
13,UCAUG,226 ± 23
14,ACGCG,305 ± 32
15,CUAU,384 ± 32
16,UGUC,537 ± 48
17,ACAGG,358 ± 32
18,GGAC,724 ± 120
19,GACUC,577 ± 33
20,UCGGG,301 ± 22
21,UGUA,352 ± 21
22,CAGUA,544 ± 58
23,AUACU,274 ± 19
24,UUGCC,577 ± 79

row,Sequence,TdT poly-dT extension signal
1,UACC,414 ± 42
2,AAAAU,605 ± 43
3,GAAGG,368 ± 27
4,UUCGG,261 ± 25
5,GACAC,708 ± 33
6,UGUGU,343 ± 26
7,GGGCC,531 ± 63
8,CUAUA,436 ± 37
9,UUCCC,377 ± 22
10,CAGC,1170 ± 110
11,GCCC,485 ± 57
12,GAUAU,397 ± 23
13,CCUC,581 ± 35
14,GCAU,609 ± 72
15,UGAAG,420 ± 35
16,CCCCA,366 ± 33
17,AGCCU,385 ± 21
18,AUCCG,257 ± 33
19,ACGUA,499 ± 57
20,UAUA,375 ± 18
21,AGGAA,924 ± 84
22,GGGGU,547 ± 22
23,AUUGA,322 ± 18
24,CUUCA,254 ± 20

row,Sequence,TdT poly-dT extension signal
1,CCAGU,534 ± 47
2,UCCAG,395 ± 20
3,AUAUA,431 ± 35
4,ACCCA,470 ± 53
5,UACAA,900 ± 74
6,CAGGC,1060 ± 81
7,GGCG,249 ± 26
8,CUGUG,211 ± 32
9,GGAG,374 ± 20
10,GGCCC,503 ± 43
11,UGAGG,320 ± 28
12,UAGC,1000 ± 70
13,GUCGG,298 ± 11
14,CCAG,470 ± 39
15,CAGGU,493 ± 28
16,GCGCC,688 ± 79
17,AAGCU,482 ± 66
18,AGGG,378 ± 28
19,CACUG,276 ± 22
20,UUGA,347 ± 26
21,AAUUU,252 ± 27
22,CGAC,626 ± 41
23,UCAC,706 ± 44
24,GCUUA,458 ± 32

row,Sequence,TdT poly-dT extension signal
1,GAACC,465 ± 33
2,GGACA,337 ± 40
3,GAGGU,553 ± 25
4,GACUG,281 ± 31
5,ACCGA,571 ± 67
6,UCCCC,421 ± 44
7,GGAGC,1340 ± 130
8,CGGUA,477 ± 36
9,ACAAU,596 ± 71
10,GAACG,310 ± 29
11,CUAC,450 ± 47
12,GCUAC,629 ± 87
13,CGACA,348 ± 31
14,GCAAA,1260 ± 170
15,UCUCA,353 ± 41
16,AGCAA,883 ± 81
17,CUGG,284 ± 26
18,UACAU,485 ± 31
19,UCGGA,471 ± 35
20,CUAGU,414 ± 26
21,CAACA,373 ± 34
22,CAACG,347 ± 20
23,ACGGC,894 ± 82
24,UAUUC,301 ± 26

row,Sequence,TdT poly-dT extension signal
1,GUAUC,404 ± 28
2,AGAAA,870 ± 44
3,UAGCU,375 ± 15
4,ACACA,394 ± 65
5,GUCG,285 ± 32
6,CGUAG,402 ± 41
7,AUUUU,177 ± 13
8,CAACC,427 ± 30
9,UCGAU,402 ± 31
10,GUGG,266 ± 22
11,GUCU,278 ± 20
12,GCACU,411 ± 58
13,CUAGC,785 ± 76
14,GCUAG,242 ± 23
15,UUGAC,732 ± 82
16,AGAAU,430 ± 30
17,CGAAU,446 ± 32
18,CCGCG,351 ± 19
19,UUAU,295 ± 21
20,CCGU,516 ± 34
21,UAUG,146 ± 15
22,GUGAC,747 ± 46
23,UUUGU,313 ± 23
24,ACGCA,585 ± 79

row,Sequence,TdT poly-dT extension signal
1,UCGC,1140 ± 90
2,UCCG,204 ± 16
3,GACUA,583 ± 75
4,AUGGA,466 ± 24
5,AAACA,425 ± 51
6,UUCCA,372 ± 59
7,AUUUA,301 ± 17
8,UGAAC,702 ± 32
9,AAGAA,1060 ± 63
10,AUGAA,715 ± 45
11,UACA,411 ± 46
12,UGGGA,457 ± 36
13,ACAUC,447 ± 23
14,UUCUA,516 ± 55
15,ACUCC,414 ± 41
16,UCAU,516 ± 30
17,CAAGA,858 ± 93
18,AGGCU,415 ± 46
19,AGAAG,511 ± 44
20,AGUAC,409 ± 38
21,GUGUC,660 ± 87
22,UGAAA,894 ± 54
23,GACUU,318 ± 22
24,GAGAG,522 ± 55

row,Sequence,TdT poly-dT extension signal
1,ACAUA,595 ± 39
2,UGCUC,572 ± 47
3,CUCUG,252 ± 20
4,UGCGC,836 ± 41
5,GUGAA,729 ± 86
6,GGGCA,291 ± 26
7,UGGAC,764 ± 41
8,UUGAG,289 ± 14
9,AAGAG,575 ± 46
10,UGAUA,499 ± 45
11,UCGAG,440 ± 22
12,AGUAA,666 ± 77
13,ACCGG,292 ± 21
14,GGUAA,574 ± 40
15,GAGCC,548 ± 66
16,UGGCU,361 ± 50
17,ACGC,911 ± 54
18,ACAAG,613 ± 60
19,CAUGU,374 ± 35
20,AGCC,544 ± 45
21,GAGCA,449 ± 27
22,UUGUC,354 ± 33
23,CGUCA,307 ± 18
24,GUGUU,234 ± 25

row,Sequence,TdT poly-dT extension signal
1,CAUUU,191 ± 17
2,GCCCG,205 ± 22
3,CUAA,687 ± 80
4,AUUAU,330 ± 49
5,CACG,339 ± 22
6,UAGAU,491 ± 41
7,ACCU,325 ± 29
8,CAGAA,1010 ± 91
9,UGUCC,422 ± 34
10,GGUAG,272 ± 28
11,CCUGC,1030 ± 75
12,UCCUU,350 ± 34
13,CACUA,633 ± 42
14,CAUAC,442 ± 26
15,AGAGG,439 ± 52
16,GCUCU,316 ± 25
17,CCAUU,359 ± 13
18,GUUUG,128 ± 16
19,CAGAU,477 ± 34
20,UUAUU,201 ± 16
21,UAUGA,393 ± 34
22,ACGUC,516 ± 40
23,GGAAU,503 ± 38
24,UUUCA,224 ± 24

row,Sequence,TdT poly-dT extension signal
1,AAGGG,368 ± 22
2,AUCU,280 ± 24
3,UUGAA,652 ± 41
4,UGAA,549 ± 44
5,CCAAG,590 ± 24
6,UACGG,384 ± 39
7,GCUCG,263 ± 19
8,CGGUU,300 ± 22
9,CUUA,341 ± 33
10,GACA,349 ± 28
11,GUUUU,266 ± 29
12,UGCUU,360 ± 22
13,GGCAU,577 ± 48
14,CAAAA,1140 ± 66
15,UAGCC,518 ± 31
16,CAGCA,560 ± 60
17,ACAC,728 ± 82
18,CCCCU,310 ± 14
19,UAACC,400 ± 29
20,CGUG,298 ± 26
21,AGCGC,712 ± 49
22,GCCAA,696 ± 70
23,CUGCG,284 ± 29
